PubChem BioAssay AID1346428 (National Center for Advancing Translational Sciences (NCATS), 2018)
Among all 48,000 compounds or so, about 1,200 (2.5%) were called active. About 2% were inconclusive and are not listed.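 Rule for the calls: active = activation of at least 60% and not above a set upper limit (about 1 call in 100 departs from these limits); inconclusive = activation of 40% to 60%, or above that upper limit; inactive = activation under 40%.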 This is one part of the list.

Biological target: Probable G-protein coupled receptor 32 (Homo sapiens) (UniProt O75388)
UniProt O75388, sequence (O75388 whole entry, looked up): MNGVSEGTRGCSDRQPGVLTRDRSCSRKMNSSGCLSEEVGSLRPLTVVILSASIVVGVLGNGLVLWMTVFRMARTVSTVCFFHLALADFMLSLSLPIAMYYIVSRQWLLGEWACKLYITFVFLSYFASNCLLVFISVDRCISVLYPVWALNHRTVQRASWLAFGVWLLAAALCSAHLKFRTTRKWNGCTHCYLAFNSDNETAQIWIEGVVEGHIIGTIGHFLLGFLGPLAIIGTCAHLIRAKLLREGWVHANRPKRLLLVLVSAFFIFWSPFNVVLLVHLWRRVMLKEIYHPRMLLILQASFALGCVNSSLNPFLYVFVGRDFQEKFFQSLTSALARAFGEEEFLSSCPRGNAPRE
Assay: qHTS for Agonists of Human Resolvin D1 Receptor DRV1; note: 0% is about no effect
Conditions: CHO-K1 GPR32 beta-arrestin PathHunter luminescence, 90 min; at 76.9 µM; active compounds read high; zero percent set by DMSO-only wells
Summary of the method: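 Readings come from a cell-based beta-arrestin complementation format: CHO-K1 GPR32 stable cells (2,500/well) treated 90 min with compounds, then beta-Gal substrate added for 1 h before chemiluminescence imaging.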

Row | Compound | activation
1 | C[C@](Cc1ccc(O)c(O)c1)(NN)C(=O)O | inactive: 0.83%
2 | O=C(Nc1ccc(Oc2ccccc2)cc1)C1CCN(S(=O)(=O)c2ccccc2)CC1 | inactive: 32.3%
3 | CCOc1ccc(NC(=O)c2cnn3c(C(F)F)cc(-c4ccc(C)cc4)nc23)cc1 | inactive: -4.06%
4 | COc1ccccc1/C=C/c1nc(C#N)c(NC(C)c2ccccc2)o1 (stereo not drawn) | inactive: -21.8%
5 | Cc1c(Cl)cccc1NC(=O)CN1C(=O)CSc2ccc(S(=O)(=O)N3CCCC3)cc21 | inactive: -24.8%
6 | CC(=O)c1cc(-c2ccc(F)cc2)n(CCC(=O)NCc2ccc(C)cc2)c1C | inactive: -21.5%
7 | Cc1ccccc1CCNCc1c(C(=O)O)c(C)n(Cc2c(F)cccc2Cl)c1C | inactive: 9.3%
8 | Cc1ccc(NC(=O)CN2CCN(C3CCCCC3)C(=O)C2=O)cc1 | inactive: -17.9%
9 | CC(C)(C)C(=O)OCOC(=O)C1N2C(=O)CC2S(=O)(=O)C1(C)C (stereo not drawn) | inactive: 15.9%
10 | CCc1ccc(Sc2cc(C(=O)NCCCN3CCCC(C)C3)c3ccccc3n2)cc1 (stereo not drawn) | active: 88%
11 | Cc1ccc(-n2ncc(C(=O)N3CCN(C4CCCCC4)CC3)c2C2CCN(C(=O)OC(C)(C)C)CC2)cc1 | inactive: -6.97%
12 | O=c1cc(COc2cccc(C(F)(F)F)c2)nc2sc3c(n12)CCCC3 | inactive: -0.163%
13 | O=C(c1cccc(Cl)c1)n1nc(-c2cccnc2)nc1NCc1ccccc1 | inactive: 4.85%
14 | CCOC(=O)c1c(C)oc2nc(C)nc(NCc3cccc(Cl)c3)c12 | inactive: 4.24%
15 | CCCCOc1cccc(NC(=O)c2cccc(C(=O)Nc3cccc(OCCCC)c3)c2)c1 | inactive: -3.83%
16 | CCc1ccccc1NC(=O)c1ccc(=O)n(Cc2ccc(F)cc2)c1 | inactive: 49.4%
17 | CCc1ccc(-n2c(=O)c3cccnc3n2CC(=O)Nc2cc(OC)ccc2OC)cc1 | inactive: -3.15%
18 | CSCCC(NS(=O)(=O)c1ccc2c(c1)oc(=O)n2C)C(=O)N1CCN(c2ccc(C(C)=O)cc2)CC1 (stereo not drawn) | inactive: -17.4%
19 | COc1cccc(C(=O)NCC(=O)OCc2cc(=O)n3ccsc3n2)c1 | inactive: 13.5%
20 | Cc1ccc(C(=O)Nc2nc(-c3nnn(-c4cccc(C(F)(F)F)c4)c3C)ns2)cc1 | inactive: -3.58%
21 | COc1cc(OC)cc(C(=O)Nc2nnc3n2CCS3)c1 | inactive: -78.9%
22 | CC(C)CC(=O)Nc1nnc(SCc2cc(=O)n3ccccc3n2)s1 | inactive: 0.992%
23 | Cc1ccc(CCNC(=O)c2cn(C)c3ccc(S(=O)(=O)N4CCC(C)CC4)cc3c2=O)cc1 | inactive: -6.13%
24 | Cc1cc(C)c(NC(=O)CCCn2c(C)c3cnn(-c4ccccc4)c(=O)c3c2C)c(C)c1 | inactive: -9.26%
25 | COc1ccccc1NC(=O)CN1C(=O)CSc2ccc(S(=O)(=O)N3CCCC3)cc21 | inactive: -18.1%
26 | CCN(CC)S(=O)(=O)c1ccc2[nH]cc(C(=O)NCCc3ccccc3)c(=O)c2c1 | inactive: 32.4%
27 | O=c1c(S(=O)(=O)c2cccc(Cl)c2)cn(Cc2ccccc2)c2cc(N3CCCCC3)c(F)cc12 | inactive: -7.11%

Row | Compound | activation
28 | CCOC(=O)c1c(S(=O)(=O)NCC(=O)Nc2ccc(F)cc2C)c(C)n(C)c1C | inactive: -11.7%
29 | COc1cc(OC)cc(-c2nc3nc(C)c(CCC(=O)NCCC(C)C)c(C)n3n2)c1 | inactive: -7.55%
30 | COc1cc(OC)c(NC(=O)c2c(C)oc3nc(C)nc(N4CCOCC4)c23)cc1Cl | inactive: -10.2%
31 | CC(=O)C1=C(c2ccc(Br)cc2)N(C(C)=O)n2c(nnc2C2CCCCC2)S1 | inactive: -28%
32 | CCn1ccc2cc(S(=O)(=O)N3CCC(C(=O)NCCc4ccccc4)CC3)ccc21 | inactive: -11.8%
33 | O=C(NCc1ccccc1Cl)c1ccc(Cn2c(=O)c3cccn3c3cccnc32)cc1 | inactive: -3.02%
34 | Cc1cccc(CNC(=O)c2ccc(C)c(-n3c(C)nc4cccnc43)c2)c1 | inactive: -5.4%
35 | CCOc1ccc(-n2c(=O)c3c(C)c(C)sc3n(CC(=O)N3CCC(C)CC3)c2=O)cc1 | inactive: -11.6%
36 | COc1cccc(-n2cc(C(=O)OCc3ccc(Cl)cc3)c3ccccc3c2=O)c1 | inactive: -19.5%
37 | O=C(CSc1nnc(-c2ccccc2F)o1)Nc1ccccc1Cl | inactive: -9.86%
38 | CCSc1nnc2c(n1)OC(c1ccc(C)s1)Nc1ccccc1-2 (stereo not drawn) | inactive: -18.7%
39 | COc1ccc(CCNC(=O)Cn2cc(S(=O)(=O)Cc3ccccc3Cl)c3ccccc32)cc1OC | inactive: -6.25%
40 | CCOc1ccccc1NC(=O)CSc1ncc(S(=O)(=O)c2ccc(C)c(C)c2)c(N)n1 | inactive: -7.85%
41 | O=C(CSc1nc2c([nH]c3ccccc32)c(=O)n1-c1ccccc1)Nc1ccc(Cl)c(Cl)c1 | inactive: -24.2%
42 | CCc1nn(CC(=O)Nc2c(C)cccc2C)c(=O)c2cc3sccc3n12 | inactive: -6.9%
43 | CNC(=O)c1c(NC(=O)Cc2coc3ccc(C)cc23)sc2c1CCCC2 | inactive: -11.7%
44 | COc1ccc(-c2noc(-c3ccc(NCC4CCCO4)c([N+](=O)[O-])c3)n2)cc1 (stereo not drawn) | inactive: -13.5%
45 | COc1cc(NC(=O)N2CCC3(CC2)Nc2ccccc2-n2cccc23)cc(OC)c1OC | inactive: -11.5%
46 | COc1ccc(-c2cc(OC(=O)c3cccc(Cl)c3)c3c(C)oc(C)c3c(=O)c2)cc1 | inactive: -6.72%
47 | O=C(COc1ccc2ccccc2c1)NC1CC(=O)N(c2ccccc2)C1 (stereo not drawn) | inactive: -3.81%
48 | Cc1ccc2nc(-c3cccnc3)c(Nc3ccc(C(C)C)cc3)n2c1 | inactive: -21.9%
49 | COc1ccccc1NC(=O)CSc1oc(-c2ccccc2)nc1S(=O)(=O)c1ccc(C)cc1 | inactive: -10.2%
50 | O=C(CSc1c2c(nc3cc(Cl)ccc13)CCCC2)N1CCN(c2ccccc2F)CC1 | inactive: -22.4%
51 | CCOC(=O)c1noc2ncn(CC(=O)Nc3cccc(Cl)c3)c(=O)c12 | inactive: 14.1%
52 | Cc1cn2c(=O)c(S(=O)(=O)N3CCN(c4cc(Cl)ccc4C)CC3)c(C)nc2s1 | inactive: -2.46%
53 | O=C(c1ccc(F)cc1)n1nc(-c2cccnc2)nc1NCc1ccc(F)cc1 | inactive: -16.7%
